From paper PMC4336329 (PLoS ONE, 2015)
About 2,200 (0.71%) of roughly 310,000 compounds showed an effect of 50% or more. The effect is printed as a negative number. The list shows a part of the results.

The molecules below were run against human ether-à-go-go-related gene (hERG) potassium channel (human, UniProt Q12809) (assay: primary screen, population patch clamp on CHO cells stably expressing hERG).
human ether-à-go-go-related gene (hERG) potassium channel, sequence (Q12809 whole entry, looked up): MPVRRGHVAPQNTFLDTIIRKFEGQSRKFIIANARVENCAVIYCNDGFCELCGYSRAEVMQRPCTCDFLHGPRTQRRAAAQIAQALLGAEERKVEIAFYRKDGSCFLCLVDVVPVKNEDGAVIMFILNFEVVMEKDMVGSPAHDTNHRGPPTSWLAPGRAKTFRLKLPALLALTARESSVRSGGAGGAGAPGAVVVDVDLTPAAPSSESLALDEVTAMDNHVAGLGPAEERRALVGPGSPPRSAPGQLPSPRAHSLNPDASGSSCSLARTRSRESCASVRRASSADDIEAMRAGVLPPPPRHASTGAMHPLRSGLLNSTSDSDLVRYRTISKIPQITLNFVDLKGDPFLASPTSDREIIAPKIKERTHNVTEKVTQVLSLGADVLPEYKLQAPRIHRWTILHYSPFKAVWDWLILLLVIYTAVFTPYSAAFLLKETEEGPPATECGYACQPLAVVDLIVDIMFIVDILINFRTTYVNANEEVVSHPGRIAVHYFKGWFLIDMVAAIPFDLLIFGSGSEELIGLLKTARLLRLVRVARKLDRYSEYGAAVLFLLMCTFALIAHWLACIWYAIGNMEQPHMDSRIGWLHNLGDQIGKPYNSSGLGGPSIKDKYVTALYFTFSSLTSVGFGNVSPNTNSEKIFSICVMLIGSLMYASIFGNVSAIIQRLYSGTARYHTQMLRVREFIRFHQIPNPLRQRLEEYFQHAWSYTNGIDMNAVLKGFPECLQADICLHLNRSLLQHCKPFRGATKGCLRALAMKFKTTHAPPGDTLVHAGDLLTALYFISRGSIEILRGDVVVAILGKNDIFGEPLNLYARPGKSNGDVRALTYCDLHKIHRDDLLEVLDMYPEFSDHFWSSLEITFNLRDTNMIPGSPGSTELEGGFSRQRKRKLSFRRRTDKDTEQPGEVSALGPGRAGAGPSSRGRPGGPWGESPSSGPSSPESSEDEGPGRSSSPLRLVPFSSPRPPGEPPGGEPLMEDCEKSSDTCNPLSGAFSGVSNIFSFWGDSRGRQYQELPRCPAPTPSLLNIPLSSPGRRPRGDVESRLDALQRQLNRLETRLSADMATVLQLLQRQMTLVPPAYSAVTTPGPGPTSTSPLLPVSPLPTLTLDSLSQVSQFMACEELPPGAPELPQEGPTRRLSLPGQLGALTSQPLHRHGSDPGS

SMILES	hERG current change (%, negative = inhibition) at 1uM [%]
Cc1ccccc1OCC(O)Cn1c(NCc2ccccc2)nc2c1c(=O)[nH]c(=O)n2C (centres unmarked)	0.772
Cc1noc(C)c1C(=O)N1CCN(S(=O)(=O)c2ccc(F)cc2)CC1	9.01
CC(C)CC(=O)Nc1nnc(CSCc2ccc(F)cc2)s1	8.12
Cn1cccc1CC(=O)N/N=C/c1ccco1	15.6
Cl.OCCN1CCN(CC(O)COCc2ccc3c(c2)OCO3)CC1 (centres unmarked)	5.06
CCOC(=O)C1=C(COC(=O)/C=C/c2ccc(SC)cc2)NC(=O)NC1C (centres unmarked)	7.54
CC(OC(=O)c1ccccc1NCCO)C(=O)Nc1ccnn1C(C)C (centres unmarked)	14.1
O=C(CN1CCN(c2ccc([N+](=O)[O-])cc2Cl)CC1)N1CCOCC1	-11
COc1ccc(NS(=O)(=O)c2ccc(C)c(C(=O)NNC(=O)c3ccccc3O)c2)cc1	9.22
c1ccc(NC(c2ccccc2)c2ccncc2)cc1 (centres unmarked)	2.05
CCOC(=O)c1c(N=CN(C)C)c2cc([N+](=O)[O-])cnc2n1C	4.88
CC(=O)Nc1nonc1-c1nc2ccccc2n1C	11.8
CCCCn1c(=O)[nH]c(=O)c2c1nc(-c1cc(Br)c(OCC)c(OC)c1)n2C	2.38
CCOC(=O)N1CCN(C(=O)CN(C)S(=O)(=O)c2ccc(OC)c(OC)c2)CC1	10.8
COCCn1c(C)cc(C2=NNC(=NC(C)(C)C)SC2)c1C	12.5
Cc1cc(NC(=O)COC(=O)c2ccc(S(=O)(=O)N3CCCc4ccccc43)cc2)no1	3.71
O=C(COc1ccc(C(=S)N2CCC(Cc3ccccc3)CC2)cc1)N1CCOCC1	6.4
O=C(c1cccs1)c1coc2ccc(O)cc12	8.05
CCn1c(=O)n(CC(=O)NC2CCCC(C)C2C)c(=O)c2ccccc21 (centres unmarked)	-1.43
Clc1ccc(Nc2nc(-c3ccncc3)cs2)cc1	7.92

SMILES	hERG current change (%, negative = inhibition) at 1uM [%]
COc1cc2sc(NC(=O)c3ccco3)nc2cc1Cl	12.7
CCC(=O)N(Cc1cc2c(C)cc(C)cc2[nH]c1=O)C1CCCCC1	-0.212
COc1ccc(-c2cn3c(C)c(C(=O)NC(C)C)sc3n2)cc1	7.93
O=C(COC(=O)CNC(=O)C1CCCCC1)Nc1ccccc1Cl	22.1
CCOC(=O)/C(C#N)=N/Nc1ccccc1C(=O)O	16.4
CCOC(=O)Cn1c(=NC(=O)C(C)C)sc2c(C)cc(C)cc21	6.6
Cc1ccc(-c2nnc(NC3CCCC3)s2)cc1	-1.73
Cc1ccccc1C(=O)NNc1ccc(-c2csnn2)cc1	-4.49
COC(=O)[C@H](CC(C)C)NC(=O)NC1CCCCC1C (some centres unmarked)	8.65
CC(C)C(CCN1C(=O)c2ccccc2C1=O)c1ccco1 (centres unmarked)	-0.472
Br.CCCn1c(=N)n(CC(=O)c2ccc([N+](=O)[O-])cc2)c2ccccc21	-38.9
COc1ccc(C(=O)NCc2cn3ccsc3n2)cc1OC	13.3
O=C(Nc1cccc(C(F)(F)F)c1)c1sc(Cl)nc1C(F)(F)F	14.1
O=C(COc1ccc(/C=N/NS(=O)(=O)c2ccccc2)cc1)NCc1ccccc1	11.2
CCc1nnc(NC(=O)c2ccc(OCc3c(C)noc3C)c(OC)c2)s1	6.83
CS(=O)(=O)N(CC(=O)NCCSCc1ccccc1)c1ccccc1Cl	-1.46
O=C(CCn1cccn1)Nc1ccc2c(c1)OCO2	9.43
CCc1ccc(C2=NN(CCC(=O)NCc3cccs3)C(=O)CC2)cc1	1.59
O=C(N1CCN(Cc2ccc3c(c2)OCO3)CC1)C12CC3CC(CC(C3)C1)C2	8.52
CC(C)Oc1ccc(C(=O)NC(=S)N2CCOCC2)cc1	6.62

SMILES	hERG current change (%, negative = inhibition) at 1uM [%]
CC(NC(=S)Nc1ccccc1OC(F)F)C(C)(C)C (centres unmarked)	1.33
CN(C)Cc1ccccc1OC(=O)N(C)C.O=C(O)/C=C/C(=O)O	2.93
O=C(COc1ccc(N2C(=O)c3ccccc3C2=O)cc1)c1ccccc1	21.4
O=C(NCc1ccc(F)cc1)C1CCN(S(=O)(=O)N2CCOCC2)CC1	13
CCN(CC(=O)Nc1ccc(OC)cc1)CC(=O)Nc1ccc2c(c1)OCO2	-9.11
COc1ccc(NC(=O)CSc2nnc(-c3ccco3)n2C)cc1	6.35
Cc1sc(NC(=O)CN2CCCC2)nc1-c1ccc2c(c1)CCN2C(=O)c1ccc(F)cc1	15.4
O=C(CCc1ccccc1)Nc1ncc([N+](=O)[O-])s1	10.2
CC(C)(ONC(=O)Nc1ccccc1Cl)C(=O)O	10.3
O=P(O)(O)C(O)C(F)(F)C(F)(F)C(F)(F)C(F)F (centres unmarked)	21.8
O=C(COC(=O)/C=C/c1ccco1)NCc1ccc2c(c1)OCO2	14
Br.CCn1c(=N)n(Cc2ccccc2F)c2ccccc21	-1.81
COCCN1Cc2cccc(C(=O)Nc3ccc(C)c(C)c3)c2C1=O	13.6
COC(=O)c1ccc(Oc2ccc3nncn3n2)cc1	2.62
CC(=O)c1cccc(CN2CCN(Cc3ccc(C)cc3)C(CCO)C2)c1 (centres unmarked)	-34.4
Cc1cc(=O)[nH]c(SCC(=O)Nc2c(C)n(C)n(-c3ccccc3)c2=O)n1	-2.17
Cc1cc(NC(=O)c2cccc(Br)c2)no1	15
COc1cccc2c(=O)n(CC(=O)N3CCCc4ccccc43)ccc12	4.3
Cc1nc2cc(NC(=O)c3ccc(S(=O)(=O)N(C)c4ccccc4)cc3)ccc2o1	14.9
